Reference: PubChem BioAssay AID686979 (National Center for Advancing Translational Sciences (NCATS), 2013)
Where “and” joins values, the source holds several entries; their conditions need not be identical. Equal entries are not always repeated. Among all 420,000 compounds or so, about 50,000 (12%) were called active. Inconclusive means that the source gave no clear call. Such entries were picked first, then a sample of the others. Calls come from the whole dose curve; as a rule, active = well fitted inhibition curve with a large enough effect; inconclusive = small, poorly fitted or top-dose-only effect; inactive = flat fitted curve, though single readings scatter. No potency is given beside an inconclusive call; the fits are too rough. Some structures have more than one record in an assay (separate samples or runs), and their calls can disagree.
% is set by controls: 0 for no effect and ±100 for the full control effect; potency is the fitted concentration of half-maximal effect; tags give direction and shape of the fitted curve.

Test: qHTS for Inhibitors of human tyrosyl-DNA phosphodiesterase 1 (TDP1): qHTS in cells in presence of CPT; note: nearly all actives have a fitted effect of over 55% in size
Details: chicken DT40 Tdp1-/-;hTDP1 cells + 20 nM CPT, ATP luminescence, 48 h; activity change, negative = growth inhibition: at 46.2 µM (top of the series) unless noted
Summary of the method: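 Chicken DT40 Tdp1-/- cells complemented with human TDP1, 400 cells/well, exposed to compounds plus 20 nM camptothecin for at least 48 h at 37 C; viability read as ATP content by CellTiter-Glo luminescence.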
In the case of `CCN(Cc1cccs1)C(=O)CN1CCN(S(=O)(=O)c2ccc3c(c2)OCCCO3)CC1`, the Potency is reported as inconclusive [inhibitor, partial curve]. With `C[C@@H](C(=O)NCC1CCCO1)N1C(=O)N2CCc3c([nH]c4ccccc34)[C@@]2(C)C1=O` (some centres not stated) the Potency was “inactive”. In the case of `CC[C@H]1OC(=O)[C@H](C)C(=O)[C@H](C)[C@@H](O[C@@H]2O[C@H](C)C[C@H](N(C)C)[C@H]2O)[C@](C)(OC)C[C@@H](C)C(=O)[C@H](C)[C@H]2N(CCCCn3cnc(-c4cccnc4)c3)C(=O)O[C@]12C`, the Potency is reported as “inactive and active: 2.37 µM”. For `O=C(Nc1ccccc1)N1CCCN(c2ccc(C(F)(F)F)cc2[N+](=O)[O-])CC1`, the Potency was inconclusive [inhibitor, single point]. In the case of `CC(=O)c1ccc(NC(=O)COC(=O)c2ccccc2N=Nc2ccc(N(C)C)cc2)cc1`, the Potency is reported as inconclusive [inhibitor, partial curve, poor fit]. In the case of `CCCCN1C(=O)C(O)(CC(=O)c2ccc(C(C)(C)C)cc2)c2ccccc21` (configuration not stated), the Potency is reported as active: 20.6 µM. For `CN(C)CC/C=C1/c2cc(F)ccc2CSc2ccc(F)cc21`, the activity change, negative = growth inhibition was inconclusive: -30.3% [inhibitor]. In the case of `C/C(=N\NC(=O)CN(c1ccc(Oc2ccccc2)cc1)S(C)(=O)=O)C(C)(C)C`, the Potency is reported as “inactive”. In the case of `CCN1CCN(c2ncc(C(=O)Nc3cc(Cl)c(OC)cc3OC)c3ccccc23)CC1`, the Potency is reported as inconclusive [inhibitor, single point]. For `C=C1c2cc(C)ccc2NC(=O)N1c1ccc(C)cc1`, the Potency was inconclusive [inhibitor, partial curve]. In the case of `COc1ccccc1N1CCN(/N=C\C(Br)=C\c2ccccc2)CC1`, the Potency is reported as active: 8.2 µM. With `O=[N+]([O-])c1ccc(Oc2c(F)c(F)nc(N3CCCC3)c2F)cc1` the Potency was inconclusive [inhibitor, partial curve]. For `N/C(CC(=O)NC1CCCCC1)=N\OCC(=O)Nc1ccc(Cl)c(Cl)c1`, the activity change, negative = growth inhibition was inconclusive: -32.5% [inhibitor]. With `COC(=O)c1ccc(CN2CCOc3ccc(CN4CCC(O)(c5cccnc5)CC4)cc3C2)cc1` the activity change, negative = growth inhibition was inactive: -3.21% [at 9.04 µM]. In the case of `Cc1cccc(OC(C)C(=O)Nc2nc(-c3cccnc3)cs2)c1` (configuration not stated), the Potency is reported as inconclusive [inhibitor, partial curve, poor fit]. For `CCC1(CC)NC(=S)NC1=S`, the Potency was “inactive”. With `O=C(NCc1cccc(Cl)c1)c1ccc(-n2ccnc2)c2ccoc12` the Potency was inconclusive [inhibitor, partial curve, poor fit]. In the case of `Cc1cc(C)c2c(N)c(S(=O)c3ccc(C(C)(C)C)cc3)sc2n1` (configuration not stated), the Potency is reported as inconclusive [inhibitor, partial curve]. For `CCOC(=O)C1=NNC(C(=O)c2ccc(Cl)cc2)C1c1ccccc1` (configuration not stated), the Potency was “inactive”. In the case of `COc1ccc(NC(=O)c2cc3c(=O)n4ccccc4nc3n2C)cc1OC`, the Potency is reported as inconclusive [inhibitor, partial curve, poor fit]. For `CCCn1c2ccccc2c2cnn(CC(=O)N3CCN(c4ccccc4)CC3)c(=O)c21`, the Potency was inconclusive [inhibitor, single point]. For `CC(C)(C)NCc1cc(Br)ccc1OC1CCCC1`, the Potency was inconclusive [inhibitor, partial curve]. In the case of `CCOC(=O)C1CCCN(C(=O)c2cc(Nc3ccc(OC)c(OC)c3)nc3ccccc23)C1` (configuration not stated), the Potency is reported as inconclusive [inhibitor, single point]. In the case of `COc1ccc(OC)c(NC(=O)CN(C)S(=O)(=O)c2ccc(Cl)cc2)c1`, the Potency is reported as “inactive”. In the case of `C(#Cc1c(-c2ccsc2)sc2ccccc12)c1ccsc1`, the Potency is reported as inconclusive [inhibitor, partial curve, poor fit]. With `CC(=O)Nc1ccc(C(=O)NNC(=O)c2csc(N3CCOCC3)n2)cc1` the activity change, negative = growth inhibition was inconclusive: -11.3% [inhibitor]. For `CCOc1ccc(NC(=O)c2ncoc2-c2ccco2)cc1`, the Potency was inconclusive [inhibitor, partial curve]. With `COCCNC(=O)C1CCN(C(=O)c2cc3sccc3n2Cc2ccc(F)cc2)CC1` the Potency was inconclusive [inhibitor, single point]. With `Cc1cc[n+](C2=C([O-])c3ccccc3C(=O)/C2=N\S(=O)(=O)c2cccs2)cc1C` the Potency was inconclusive [inhibitor, partial curve, poor fit]. For `COc1cc(NC(=O)Cn2cc(C(=O)c3ccc(F)cc3)c(=O)c3ccc(C)nc32)cc(OC)c1`, the Potency was inconclusive [inhibitor, single point]. For `CC(=O)Nc1cc(-c2ccc(N3CCN(C)CC3)cc2)cn2c(-c3ccc(S(C)(=O)=O)cc3)cnc12`, the Potency was active: 14.6 µM. For `Cn1c(N2CCOCC2)cc(=O)n(C)c1=O`, the Potency was inconclusive [inhibitor, single point]. In the case of `Cc1ccc(CNC(=O)CN2C(=O)CSc3ccc(S(=O)(=O)N4CCC(C)CC4)cc32)cc1`, the Potency is reported as inconclusive [inhibitor, single point]. With `CSc1ccc(Cn2c(C)c(C(=O)NCc3ccco3)sc2=O)cc1` the Potency was inconclusive [inhibitor, partial curve, poor fit]. In the case of `CC(=O)Nc1ccc(C(=O)N2CCCCC2c2cc(C(=O)NCc3ccc(F)cc3)no2)cc1` (configuration not stated), the Potency is reported as “inactive”. With `COc1cccc(CNC(=O)c2ccc(-n3c(C)cc4c3CCC(C)C4)cc2)c1` (configuration not stated) the Potency was inconclusive [inhibitor, single point]. For `COc1ccc(-c2coc3c(C(=O)NC4CCCCC4)cccc23)c(C)c1`, the Potency was inconclusive [inhibitor, single point]. For `O=C(c1cccc(Oc2c(Cl)cccc2[N+](=O)[O-])c1)N1CCCCC1`, the Potency was “inactive”. With `COC(=O)c1ccc2nc(NC(=O)C(C)(C)C)sc2c1` the Potency was inconclusive [inhibitor, single point]. With `COc1cc(CNC[C@H]2O[C@@H](n3cc(C)c(=O)[nH]c3=O)C[C@@H]2O)ccc1OCc1cccc(Cl)c1` the Potency was “inactive”. With `COc1cc(OC)c2c(c1)OC(c1ccccc1)CC2=O` (configuration not stated) the Potency was “inactive”. With `COc1cccc(-c2nc(NC3CCCC3)c3ccccc3n2)c1O` the Potency was inconclusive [inhibitor, single point]. In the case of `O=C(Cn1c(=O)nc(-c2ccccc2)c2cc(Cl)ccc21)Nc1ccc(F)c(Cl)c1`, the Potency is reported as inconclusive [inhibitor, single point]. With `N#Cc1cccc(-c2ccc3ncnc(NCc4ccccc4)c3c2)c1` the Potency was inconclusive [inhibitor, single point]. For `CC(O)(c1ccccc1)c1nc(/C=C/c2ccccc2)cs1` (configuration not stated), the Potency was inconclusive [inhibitor, partial curve, poor fit]. In the case of `C=CCn1c(=O)c(C(=O)OCC)c(O)c2ccccc21`, the Potency is reported as “inactive”. With `CCN(CC(=O)NC(C)(C)C)Cc1nc2c(Br)cc(Br)cc2c(=O)[nH]1` the Potency was inconclusive [inhibitor, single point]. With `COc1ccccc1C(=O)Nc1cccc(NC(=O)c2ccccc2C)c1` the Potency was inconclusive [inhibitor, single point]. In the case of `CC(C)c1ccc(-c2nnn(CC(=O)N3CCCCC3)n2)cc1`, the Potency is reported as “inactive”. In the case of `CCOc1cc(/C=C2\C(=O)N(Cc3ccc(C)cc3)C(C)=C2C(=O)OC)ccc1O`, the Potency is reported as inconclusive [inhibitor, single point]. With `CC(=O)c1ccc(OC(=O)C2CSC3(C)CCC(=O)N23)cc1` (configuration not stated) the Potency was inconclusive [inhibitor, single point]. For `CCOc1cc(/C=C2\C(=O)N(Cc3ccco3)C(C)=C2C(=O)OC)ccc1O`, the Potency was inconclusive [inhibitor, single point]. For `COc1ccc(Cn2ccnc2SCC(=O)Nc2ccccc2OC)cc1`, the Potency was inconclusive [inhibitor, single point]. For `COc1cc(SC)ccc1C(=O)Nc1cc(C)c(OCC(=O)N2CCOCC2)c(C)c1`, the Potency was inconclusive [inhibitor, single point]. For `CCC(Sc1nnc(C)n2c1cc1occc12)C(=O)Nc1ccccc1OC` (configuration not stated), the Potency was inconclusive [inhibitor, single point]. For `Cc1cc2ccccc2n2c(SCC(=O)NCC3CCCO3)nnc12` (configuration not stated), the Potency was “inactive”. With `Cc1ccc(NC(=O)c2cnn3c2NC(c2ccccc2)=CC3c2ccccc2)cc1` (configuration not stated) the Potency was active: 10.3 µM. With `CC[C@]12c3[nH]c4ccc(OC)cc4c3CCN1C(=O)C(CC(=O)NCCN1CCOCC1)C[C@@H]2C(=O)N1CCN(C(=O)C2CC2)CC1` (some centres not stated) the Potency was “inactive”. With `CCOC(=O)CC(=O)CSc1nc(C)nc2c1oc1ccccc12` the Potency was “inactive”. In the case of `O=C1CC(SCc2nc3ccccc3[nH]2)C(=O)N1c1ccc(Cl)cc1` (configuration not stated), the Potency is reported as inconclusive [inhibitor, single point]. For `O=C(COC(=O)C1CCCCC1)Nc1cccc(Br)c1`, the Potency was “inactive”. With `COc1cc(OC)c(NC(=O)Cn2cnc3sc(C)c(S(=O)(=O)N4CCOCC4)c3c2=O)cc1Cl` the Potency was “inactive”. For `CC(=O)c1sc(N2C(=O)c3oc4ccccc4c(=O)c3C2c2ccc(C)cc2)nc1C` (configuration not stated), the Potency was “inactive”. In the case of `COCCn1nnnc1CN1CCSCC1`, the Potency is reported as “inactive”. With `Cc1cccc(COc2ncnc3nc[nH]c23)c1` the activity change, negative = growth inhibition was inconclusive: -32.5% [inhibitor]. With `Cc1ccc(C(C)C)c(OCC(O)CN2CCc3ccccc3C2)c1` (configuration not stated) the Potency was inconclusive [inhibitor, single point]. With `Nc1nc(CN2CCN(c3ccccn3)CC2)nc(Nc2ccc(Cl)cc2)n1` the Potency was inconclusive [inhibitor, partial curve].
